In the supplement of paper PMC3334620:
Whole data set: some 33,000 sequences, median “E-score (-0.5 to 0.5)” near -0.043, cut for the highest 2% near 0.37. Some of the results follow.

What follows are sequences tested against T1, Upc2 (UniProt Q12151) (assay: PBM E-score (8-mer binding enrichment) (E-score (-0.5 to 0.5)); higher = stronger / more preferred TF binding; most listed sequences are background and not binding sites). Details: protein concentration: 200 nM; construct: GST-full length.
T1 sequence: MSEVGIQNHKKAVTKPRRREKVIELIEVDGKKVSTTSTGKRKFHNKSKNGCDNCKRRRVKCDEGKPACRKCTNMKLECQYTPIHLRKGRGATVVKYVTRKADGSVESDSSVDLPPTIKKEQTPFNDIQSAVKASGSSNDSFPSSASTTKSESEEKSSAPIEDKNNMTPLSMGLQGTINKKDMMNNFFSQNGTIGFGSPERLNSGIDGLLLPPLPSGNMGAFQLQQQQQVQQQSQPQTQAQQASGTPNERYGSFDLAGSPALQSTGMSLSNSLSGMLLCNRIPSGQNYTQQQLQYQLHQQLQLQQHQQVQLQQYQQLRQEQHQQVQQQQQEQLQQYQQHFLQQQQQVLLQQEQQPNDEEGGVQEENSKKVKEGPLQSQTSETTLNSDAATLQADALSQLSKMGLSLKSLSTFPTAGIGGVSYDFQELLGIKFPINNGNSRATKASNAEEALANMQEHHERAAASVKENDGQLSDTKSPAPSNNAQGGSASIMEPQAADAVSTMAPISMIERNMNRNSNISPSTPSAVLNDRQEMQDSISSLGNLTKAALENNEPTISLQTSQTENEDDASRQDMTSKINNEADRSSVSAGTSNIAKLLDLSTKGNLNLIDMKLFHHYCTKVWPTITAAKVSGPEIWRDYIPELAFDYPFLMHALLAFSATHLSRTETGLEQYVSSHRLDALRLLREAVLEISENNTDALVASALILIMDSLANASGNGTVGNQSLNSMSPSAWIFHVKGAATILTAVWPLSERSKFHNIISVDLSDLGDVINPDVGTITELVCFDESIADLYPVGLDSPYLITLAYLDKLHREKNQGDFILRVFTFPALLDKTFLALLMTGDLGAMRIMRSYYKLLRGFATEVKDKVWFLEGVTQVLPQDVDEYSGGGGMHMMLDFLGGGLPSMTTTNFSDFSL
Procedure, shortened: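 Detection of bound protein used fluorescent anti-GST, with scans normalised by masliner. The proteins were GST-tagged yeast transcription factors applied at about 100-200 nM to universal all-10-mer Agilent arrays made double-stranded by primer extension. Each ungapped eight-base word, pooled with its reverse complement, was scored with an E-score from the Universal PBM Analysis Suite.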

| Sequence | PBM E-score |
| --- | --- |
| ACTTGCCC | -0.292 |
| AAATTACG | 0.235 |
| ACGAACTG | 0.31 |
| AGGGATGC | -0.282 |
| ACTATGAC | -0.142 |
| ATTTGTCG | 0.102 |
| CCTATCCA | -0.278 |
| CCGGAGCC | -0.082 |
| ATACGATA | 0.472 |
| GCCTGGCC | -0.108 |
| ACCTTGAA | -0.1 |
| GACTATGC | 0.0224 |
| AAGCCTTG | 0.018 |
| ACGTAAGT | 0.137 |
| ATGGATGA | -0.0106 |
| ACCTAGTC | -0.0345 |
| AGGGCTAT | -0.22 |
| TCACATCA | -0.11 |
| CCTCATGA | -0.12 |
| GACCACCC | -0.161 |
| TACACGAA | 0.313 |
| ATCCGTTG | -0.0233 |
| AACGTATG | 0.239 |
| ACCACCCG | -0.124 |
| TACGGGAA | 0.327 |

| Sequence | PBM E-score |
| --- | --- |
| AGGAGTTA | -0.0756 |
| CGGGAGAA | -0.0716 |
| CAAGAGGG | -0.205 |
| ACTAATCA | 0.0034 |
| CAATTTCG | 0.0133 |
| CAGGATCG | 0.094 |
| AAAGAGAG | -0.12 |
| CCCGGAAA | -0.0335 |
| ACTAGCGC | -0.167 |
| ACTGGCGA | -0.204 |
| ACGACATC | 0.34 |
| CACTACCC | -0.198 |
| AATGGAAG | -0.159 |
| CTGCCGAA | -0.0435 |
| ACACCGAG | -0.024 |
| CCTGGAAG | -0.334 |
| CTCCGACA | 0.0257 |
| ACTCTTGG | -0.103 |
| AGGCTCTA | -0.11 |
| CCCATCGG | 0.0976 |
| TCAAGAGA | -0.0229 |
| ATCGCTCC | 0.111 |
| AGTCATCC | -0.107 |
| CATAAGGA | -0.0555 |
| GCGCGTAC | 0.329 |

| Sequence | PBM E-score |
| --- | --- |
| CAGCCCGG | -0.0343 |
| ATAGGGTG | -0.187 |
| GTTGGATA | -0.146 |
| TCATATCA | -0.0283 |
| CCATCCAC | -0.193 |
| AACTGATC | -0.0255 |
| CCGCAACG | 0.297 |
| ATTATCAA | -0.0384 |
| AGGCCGCC | -0.314 |
| ACCGGCCA | -0.184 |
| GAGATCCC | -0.212 |
| AATGGATC | -0.145 |
| GAGATAAA | 0.0516 |
| ACCTCAGA | -0.377 |
| AGGCAGTG | -0.114 |
| ACCTCTCG | 0.127 |
| ATGTAGCG | 0.02 |
| ATAGAGGA | -0.143 |
| CGCGAGAG | 0.162 |
| ACGGAAAA | 0.185 |
| AACCGGAC | -0.0878 |
| ATGGTCAC | -0.142 |
| AGTCACAT | -0.1 |
| TGTGGTAA | 0.0324 |
| CTCACAAC | 0.0625 |

| Sequence | PBM E-score |
| --- | --- |
| TAATCGGA | 0.155 |
| ATCCTCGA | -0.00724 |
| CGTTAAGA | 0.341 |
| ACCTGCCA | -0.234 |
| GGCTGCAA | -0.14 |
| ATCCCAGA | -0.238 |
| CCACAGAG | -0.0522 |
| CCAAAACA | -0.143 |
| TCTATGAA | 0.0298 |
| ACATTCCA | -0.124 |
| TGCTTCAA | -0.233 |
| ACAACCAG | 0.00918 |
| ATGTACCC | -0.126 |
| CAAGTGAG | -0.214 |
| AATAGAGT | -0.0523 |
| CAATGTAA | 0.0538 |
| TAAAACGA | 0.356 |
| TCCCGTCA | -0.0393 |
| CTCCACAG | -0.305 |
| AATCGAGG | 0.182 |
| AATGTCTG | -0.077 |
| CGCGATGA | 0.0925 |
| AAAACCGA | 0.244 |
| AGCAGGGA | -0.221 |
| ATTAATCA | -0.00167 |

| Sequence | PBM E-score |
| --- | --- |
| TCATGACA | 0.0787 |
| CCTGAAGA | -0.00695 |
| GAACGACC | 0.429 |
| CTAACTAG | 0.0137 |
| GCGTCGAA | -0.0193 |
| CCTGCGAA | -0.0541 |
| CAGCAGAA | -0.0037 |
| CCCATCCC | -0.0946 |
| CGCATGAA | 0.108 |
| AGAAGAAC | 0.0403 |
| AATGTATC | 0.041 |
| CACACACA | -0.0178 |
| AGGCACAT | -0.0795 |
| CTACACGA | 0.334 |
| AAACATCC | -0.0738 |
| ATGGCAAA | -0.126 |
| AACATGAG | -0.139 |
| ACGGCAGT | 0.209 |
| CAGCTGAC | -0.176 |
| CACACTCG | 0.132 |
| CTATCGGC | -0.266 |
| CGTTGTGC | 0.0699 |
| AAGGCGAC | -0.119 |
| GAGATATA | 0.0522 |
| ATTCCTTC | -0.102 |

| Sequence | PBM E-score |
| --- | --- |
| CACGTCGC | 0.061 |
| GCAGGAGC | -0.137 |
| ATCCACAA | -0.118 |
| CCAAACAA | 0.00545 |
| ACACCATG | -0.147 |
| ACGAATAC | 0.287 |
| AATACGGC | 0.291 |
| AGTTGTGA | -0.00341 |
| GGAAACAA | -0.0508 |
| TAGATTAA | 0.104 |
| CCCCTGTA | -0.103 |
| AACAATCC | -0.0485 |
| CAATCAAA | -0.00922 |
| ACACTAAT | -0.0751 |
| CGGCTGTC | 0.0196 |
| CCCGGCTC | -0.145 |
| CGAGCGTC | 0.189 |
| CCTTCGAA | -0.0831 |
| AGACTCTA | -0.0049 |
| CCGCCCGC | 0.0673 |
| ATTATTGC | 0.0867 |
| CCTTGTAA | 0.0908 |
| AAGCCTCG | 0.141 |
| GATCAGAC | -0.158 |
| CACTTAAC | 0.126 |

| Sequence | PBM E-score |
| --- | --- |
| ACCTCCGT | 0.0209 |
| GTACGTTA | 0.343 |
| ACAATCAG | 0.00625 |
| GGGTCTTA | -0.104 |
| CACGGCAC | -0.155 |
| CTTGTGGC | -0.275 |
| ATTATAAT | 0.147 |
| GGGGCCCC | -0.134 |
| CTTCCGAC | -0.0251 |
| GTTTCGTA | 0.446 |
| ACCAACTC | -0.0426 |
| ACGCCAGT | -0.0196 |
| CTTATACC | 0.172 |
| AGTCTAAA | -0.00311 |
| CCAGAAAC | 0.0333 |
| AAGCGGCA | 0.0509 |
| GAAGCAAA | -0.0986 |
| AAGTTGCA | -0.0796 |
| CCGCGCGA | 0.0382 |
| GTTATATA | 0.104 |
| TGTACGAA | 0.479 |
| CTCGAGAC | 0.0431 |
